# Measured values: PubChem BioAssay AID1476 (National Center for Advancing Translational Sciences (NCATS), 2009)
# The campaign covered roughly 200,000 compounds. About 4,500 (2.2%) were called active. Inconclusive results, whose numbers are uncertain, are shown with a selection of clear calls. Calls follow the shape of the dose curve; as a rule, active = well fitted inhibition curve with a large enough effect; inconclusive = small, poorly fitted or top-dose-only effect, or effect the other way; inactive = flat fitted curve, though single readings scatter. Potencies beside an inconclusive call are fits to weak or partial responses and may not hold up. A structure can be active in one record and inactive in another.
# Target: Cruzipain (Trypanosoma cruzi) (UniProt P25779)
# Experiment: qHTS Assay for Promiscuous and Specific Inhibitors of Cruzain (without detergent); also: nearly all actives have a fitted effect of over 40% in size;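 as to max response, negative = inhibition: plate controls were enzyme without inhibitor for no effect and buffer without enzyme for full effect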
# Settings: purified cruzain, Z-FR-AMC fluorescence, no detergent
# Outline: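 Detergent-free condition (0.00005% Triton X-100) in acetate buffer pH 5.5 with DTT. 1.5 nM enzyme and compound were pre-mixed 15 min, then 2 uM Z-FR-AMC substrate added; reaction progress from fluorescence change between first and third reads (60 s).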
# Potency is read from the fitted curve at half-maximal effect; tags tell the direction and shape of the fitted curve.
# Chain of UniProt P25779 (P25779 whole entry, looked up): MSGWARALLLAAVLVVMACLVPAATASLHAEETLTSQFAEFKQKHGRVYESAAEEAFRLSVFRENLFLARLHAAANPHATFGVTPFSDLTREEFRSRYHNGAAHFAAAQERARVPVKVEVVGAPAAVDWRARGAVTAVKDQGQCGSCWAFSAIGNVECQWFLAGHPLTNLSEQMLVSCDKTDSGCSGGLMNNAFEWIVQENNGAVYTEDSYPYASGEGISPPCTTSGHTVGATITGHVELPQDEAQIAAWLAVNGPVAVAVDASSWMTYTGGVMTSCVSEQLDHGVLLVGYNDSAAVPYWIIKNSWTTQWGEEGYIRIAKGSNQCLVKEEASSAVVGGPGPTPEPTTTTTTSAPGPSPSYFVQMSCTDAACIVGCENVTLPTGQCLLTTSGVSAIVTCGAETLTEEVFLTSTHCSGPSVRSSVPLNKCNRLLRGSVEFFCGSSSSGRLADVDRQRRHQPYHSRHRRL
SMILES,Potency,"max response, negative = inhibition"
O=C(Nc1nc(-c2ccccc2)cs1)c1ccccc1NS(=O)(=O)c1ccc(F)cc1,"inconclusive: 31.6 µM [inhibitor, single point]",–
CCc1ccc2c(c1)c(=O)c(S(=O)(=O)c1ccc(F)cc1)cn2CC(=O)Nc1ccc(C)cc1C,–,inactive: -10.4%
O=C(CNC(=O)c1ccc(F)cc1)N/N=C/c1cc(Br)ccc1OCc1ccccc1,"inconclusive: 39.8 µM [inhibitor, single point]",–
NS(=O)(=O)c1ccc(NC(=O)COC(=O)c2cn(-c3ccccc3)nc2-c2ccc(F)cc2)cc1,"inconclusive: 39.8 µM [inhibitor, single point]",–
Cc1ccc(-c2nnc(SCC(=O)n3c4c(c5ccccc53)CCCC4)o2)cc1,–,inactive: -18.4%
CC(C)N(Cc1nc(-c2ccccc2)no1)C(=O)CCCN1C(=O)c2ccccc2C1=O,"inconclusive: 12.6 µM [activator, partial curve, poor fit]",–
COc1ccccc1N1CCN(C(=O)c2nn(-c3ccc(C)cc3)c(=O)n(C)c2=O)CC1,"inconclusive: 31.6 µM [activator, single point]",–
CCCCCCCCC(=O)NCc1cc(OC)c(O)cc1I,"inconclusive: 31.6 µM [activator, partial curve]",–
COc1ccc(N(C(=O)c2cccnc2)S(=O)(=O)c2ccc3c4c(cccc24)C(=O)N3C)cc1,"inconclusive: 39.8 µM [activator, single point]",–
Cc1ccc(Nc2nc(-c3sc(NC(=O)c4ccco4)nc3C)cs2)cc1,–,inactive: -25.7%
O=C(c1ccco1)N1CCN(Cc2nc3ccc([N+](=O)[O-])cc3c(=O)n2-c2ccccc2F)CC1,"inconclusive: 31.6 µM [activator, single point]",–
CCCCOc1ccc(C(=O)OCC(=O)Nc2cc(C)c(C)cc2[N+](=O)[O-])cc1,"inconclusive: 12.6 µM [inhibitor, partial curve]",–
CCc1ccccc1N=C1S/C(=C/c2ccccc2OCC(=O)N2CCOCC2)C(=O)N1C,"inconclusive: 25.1 µM [activator, partial curve]",–
C[C@@H](C(=O)Nc1ccc2ccccc2c1)[C@H]1C[C@]1(C)[C@H](NC(=O)Oc1ccc(F)cc1)c1ccccc1,active: 15.8 µM,–
CC(/C=C1\SC(=S)N(CC(=O)N2CCN(c3ccccc3)CC2)C1=O)=C\c1ccccc1,active: 10 µM,–
CCOc1ccc(NC(=O)CCS(=O)(=O)c2ccc3c(c2)CCCN3C(C)=O)cc1,–,inactive: 10.5%
O=C(Cn1cnc2c(cnn2-c2ccccc2)c1=O)Nc1ccc(S(=O)(=O)N2CCOCC2)cc1,"inconclusive: 39.8 µM [activator, single point]",–
CCSc1nnc(NC(=O)c2cc3c(s2)CCCC3)s1,active: 7.94 µM,–
CCOC(=O)CCNC(=O)Nc1ccc2nc(C)n(Cc3cccc(Cl)c3)c(=O)c2c1,"inconclusive: 39.8 µM [activator, single point]",–
O=C(CSc1ccc2nnc(-c3ccc(Cl)cc3)n2n1)N1CCCc2ccccc21,"inconclusive: 39.8 µM [inhibitor, single point]",–

SMILES,Potency,"max response, negative = inhibition"
CCOc1ccc(Br)cc1S(=O)(=O)Nc1ccc(C(=O)Nc2ccc(C)cc2)cc1,active: 31.6 µM,–
COC(=O)[C@@]1(Cc2ccccc2)[C@H]2c3cc(C(=O)N(C)C)n(Cc4ccc(O)c(OC)c4)c3C[C@H]2CN1C(=O)c1ccccc1,"inconclusive: 12.6 µM [activator, partial curve]",–
CCc1ccc(-c2cc(C)no2)cc1S(=O)(=O)Nc1cc(OC)c(OC)c(OC)c1,"inconclusive: 39.8 µM [activator, single point]",–
Cc1ccc(S(=O)(=O)N2CCN(Cc3ccc4c(c3)OCO4)CC2)cc1,–,inactive: -1.37%
COc1ccc(C2=C(C)C(=NCc3ccc(OC(C)C)cc3)NS2(=O)=O)cc1,"inconclusive: 31.6 µM [inhibitor, single point]",–
Cc1ccc2c(c1)sc1nc(=O)n(-c3ccc(Cl)c(Cl)c3)c(=O)n12,active: 20 µM,–
CCOC(=O)c1cc(CC)sc1NC(=O)c1cccc(N2C(=O)CCC2=O)c1,"inconclusive: 5.01 µM [inhibitor, partial curve, poor fit]",–
CC(C)CC(COCc1ccc(Cl)cc1)N1CCN(C(=O)c2cccc(C(F)(F)F)c2)CCC1=O (centres undefined),"inconclusive: 31.6 µM [activator, single point]",–
CCn1c(=N)c(C(=O)NCC2CCCO2)cc2c(=O)n3cc(C)ccc3nc21 (centres undefined),"inconclusive: 31.6 µM [inhibitor, single point]",–
COc1ccc(-c2nc3ccccc3s2)cc1NC(=O)c1cccc([N+](=O)[O-])c1C,–,inactive: -1.79%
COc1ccccc1-c1cc(C(=O)Nc2sc3c(c2C#N)CCC(C)C3)c2ccccc2n1 (centres undefined),active: 3.16 µM,–
COC(=O)c1cc(NS(=O)(=O)c2ccc(N3CCOCC3)c(NC(C)=O)c2)cc(C(=O)OC)c1,"inconclusive: 39.8 µM [activator, single point]",–
O=C(CCc1ccccc1)NC(=S)Nc1cc(C(F)(F)F)ccc1N1CCOCC1,"inconclusive: 20 µM [inhibitor, partial curve]",–
COc1ccc(C(C)=O)cc1CSc1nnc(Nc2ccccc2C)s1,"inconclusive: 31.6 µM [inhibitor, single point]",–
O=C(CSc1nc2ccccc2nc1Cc1ccccc1F)Nc1cccc(C(F)(F)F)c1,–,inactive: -9.32%
CCn1c(=N)c(S(=O)(=O)c2ccc(F)cc2)cc2c(=O)n3ccccc3nc21,active: 20 µM,–
COc1ccc(-c2cc(C(F)(F)F)nc(SCC(=O)NCc3cccs3)n2)cc1OC,"inconclusive: 25.1 µM [activator, single point]",–
COc1ccc(-c2cc3nc(C)c(CCC(=O)N4CCN(c5ccccc5F)CC4)c(C)n3n2)c(OC)c1,–,inactive: 2.79%
COC(=O)c1ccc(COc2ccccc2/C=C(\C#N)C(=O)Nc2c(C)cc(C)cc2C)cc1,"inconclusive: 39.8 µM [inhibitor, single point]",–
